Data taken from paper PMC6919601, “Identification of Plasmodium dipeptidyl aminopeptidase allosteric inhibitors by high throughput screening” (PLoS ONE, 2019).
“And” between values parts separate entries of the source, which are not always exact repeats. Equal values may be shown once. Out of some 110,000 compounds screened, about 230 (0.21%) showed an effect of 50% or more. Some of the results follow.

Target: DPAP1 (Plasmodium falciparum, UniProt Q8IIJ9)
Assay: primary screen, percent inhibition; read by cleavage of a fluorogenic dipeptide substrate; higher = more effect of the substance
Parameters: species or system P. falciparum D10 trophozoite lysates; single well
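Note: 30 min substrate incubation versus DMSO and 10 µM JCP410 controls.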

Chain of DPAP1 (Q8IIJ9 whole entry, looked up): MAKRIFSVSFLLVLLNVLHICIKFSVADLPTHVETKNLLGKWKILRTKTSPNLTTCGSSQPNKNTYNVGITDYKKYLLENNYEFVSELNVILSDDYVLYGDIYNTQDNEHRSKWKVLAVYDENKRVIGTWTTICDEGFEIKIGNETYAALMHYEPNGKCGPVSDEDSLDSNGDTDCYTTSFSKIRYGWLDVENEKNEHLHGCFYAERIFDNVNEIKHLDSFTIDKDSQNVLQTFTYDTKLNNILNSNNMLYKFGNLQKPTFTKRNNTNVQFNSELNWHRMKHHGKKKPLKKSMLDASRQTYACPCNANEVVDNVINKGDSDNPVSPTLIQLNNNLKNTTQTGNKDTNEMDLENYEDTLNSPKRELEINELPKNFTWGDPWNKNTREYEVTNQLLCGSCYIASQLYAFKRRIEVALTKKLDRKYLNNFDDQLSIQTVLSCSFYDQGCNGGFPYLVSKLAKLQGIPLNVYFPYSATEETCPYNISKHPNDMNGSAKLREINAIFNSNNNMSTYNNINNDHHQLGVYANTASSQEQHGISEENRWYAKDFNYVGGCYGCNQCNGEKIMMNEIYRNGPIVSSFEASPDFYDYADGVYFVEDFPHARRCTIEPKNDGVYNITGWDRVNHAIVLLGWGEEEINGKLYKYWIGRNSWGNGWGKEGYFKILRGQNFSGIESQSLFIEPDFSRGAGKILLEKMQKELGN

SMILES | % Inhibition @ 10 uM
Cc1ccc(OCC(=O)N(Cc2nc(-c3ccccc3)no2)C(C)C)cc1C | 1.62%
Cc1nc2nc(N3C(=O)c4ccccc4C3=O)nn2c(C)c1Cl | -3.08%
N#CC1=C(N)Oc2[nH]nc(C34CC5CC(CC(C5)C3)C4)c2C1c1ccco1 (stereo not drawn) | -6.37%
COc1ccc2nc(N3CCSCC3)cc(C)c2c1 | -1.85%
Cn1c2c(c(=O)n(C)c1=O)CN(CCN1CCc3ccccc3C1)CN2 | -2.88%
Cn1cccc1-c1nc2cc(NS(=O)(=O)c3ccccc3)ccc2[nH]1 | -1.38% and 1.88%
CCOC(=O)c1c(C=O)c(C)n(Cc2ccccc2F)c1C | -1.75%
CC(C)CSc1nc(O)cc(O)n1 | -1.42%
O=C(CCN1C(=O)/C(=C\c2ccc(F)cc2)SC1=S)Nc1ccccc1 | -1.97%
COc1cc(CC(C)N2CCCCCC2)ccc1O (stereo not drawn) | -5.31%
COC(=O)c1ccc2oc(=O)c(C(N)=O)cc2c1 | -4.58%
COc1ccc(C(=O)Nc2c(Cl)cc(Cl)cc2C(=O)NCc2ccco2)cc1 | -11.7%
CCN1CCC(N2CCN(c3ccccc3Cl)CC2)CC1 | 1.57%
COc1ccc(OC)c(NC(=O)C2=C(C)NC(=O)NC2c2cccs2)c1 (stereo not drawn) | -17%
CC1CN(c2nc3c(c(=O)n(C)c(=O)n3C)n2Cc2cccc(F)c2)CC(C)O1 (stereo not drawn) | 1.9%
CC(C)CCNC(=O)CCNC(=O)Cn1ccc2ccccc2c1=O | -5%
CCC1SC2=NC(C)=C(C(=O)OCc3ccccc3)C(c3ccc(OC)cc3)N2C1=O (stereo not drawn) | 0.561%
CCCCOCC(O)CN1CCN(C(C)=O)CC1 (stereo not drawn) | -3.18%
CCCc1[nH]nc2c1C(c1cccc(OC)c1)C(C#N)=C(N)O2 (stereo not drawn) | 2.76%
CC(C)(C)NC(=O)c1cccs1 | -5.64%
Oc1ccc(Br)cc1CN1CCN(Cc2ccccc2F)CC1 | -7.23%
CCOc1ccccc1N1CCN(Cc2cccc(Br)c2)CC1 | 1.55%

SMILES | % Inhibition @ 10 uM
Cc1ccc(C2CC(c3ccccc3)n3nnnc3N2)cc1 (stereo not drawn) | 0.131%
O=C(Nc1ccncc1)c1ccc2c(c1)C(=O)N(CC1CCCO1)C2=O (stereo not drawn) | 3.49%
CC1(C)Cc2c(sc3[nH]c(=S)[nH]c(=S)c23)CO1 | 15%
CC(C)CCNC(=O)C(=O)NCC(C)O (stereo not drawn) | -0.0494%
O=C(/C=C/c1cn(CC(O)CN2CCCCC2)c2ccccc12)c1cccs1 (stereo not drawn) | -5.36%
c1ccc2[nH]c(-c3ccncc3)nc2c1 | -3.55%
COc1ccc(S(=O)(=O)N(CC(=O)N2CCC(C)CC2)c2cc(Cl)ccc2OC)cc1OC | -5.26%
Cc1[nH]c2c(C)cccc2c1CCN | -3.38%
O=C(CN1CCOCC1)N1N=C(c2ccc(Br)cc2)CC1c1nc2ccccc2[nH]1 (stereo not drawn) | 1.24%
CCOC(=O)C1=C(C)N=c2s/c(=C\c3c(OCC)ccc4ccccc34)c(=O)n2C1c1ccccc1 (stereo not drawn) | -1.66%
Brc1cnc2nc(-c3ccco3)c(-c3ccco3)nc2c1 | -0.833%
CC1CCN(C(=O)CCCN2C(=O)C(c3ccccc3)Oc3cccnc32)CC1 (stereo not drawn) | -2.97%
Cc1cccc(NC(=O)c2onc3c2CCCC3)n1 | -2.29%
COCc1cc(O)nc(SCC(=O)Nc2ccccc2)n1 | -4.48%
Nc1ccc(S(=O)(=O)N2CCc3ccccc32)cc1 | 4.98%
COc1cccc(C(C)NC(=O)c2cc(C)on2)c1 (stereo not drawn) | -2.65%
CNc1nc2c(C)cccn2c(=O)c1/C=N/Cc1ccccc1 | -3.98%
CCC(C)NC(=O)Cn1ncn2c(cc3sccc32)c1=O (stereo not drawn) | -1.58%
CCC(Cc1ccccc1)NC(=O)c1ccc(OC)c(OC)c1 (stereo not drawn) | -0.128%
O=C(NCCN1CCOCC1)C(c1ccccc1)N1Cc2ccccc2C1=O (stereo not drawn) | -5.29%
CCSc1nnc(NC(=O)CCNS(=O)(=O)c2cc(Br)cnc2N)s1 | -1.91%
CCCCNC(=O)Nc1ccccc1C(=O)Nc1ccc(Cl)cc1 | -0.116%

SMILES | % Inhibition @ 10 uM
COc1cc(C(=O)N2CCN(C(=O)c3cc(OC)c(OC)c(OC)c3)C(C)C2)cc(OC)c1OC (stereo not drawn) | -1.4%
COc1ccc(OC)c(-c2cc(C(=O)Nc3cccnc3)c3ccccc3n2)c1 | -6.74%
CC(=O)Nc1ccc(Nc2nc(-c3ccccc3)cs2)cc1 | 2.62%
O=C(O)c1ccccc1CSc1ccccn1 | -5.96%
COCCNC(=S)N(CCc1c(C)[nH]c2ccc(C)cc12)Cc1cccnc1 | -2.01%
Cc1oc2ncnc(NC3CCCC(C)C3C)c2c1C(=O)O (stereo not drawn) | -2.19%
Cc1ccc(S(=O)(=O)c2cnc3ccc(Cl)cc3c2N2CCCC2)cc1 | -1.85%
O=C(CNS(=O)(=O)c1ccc(Br)cc1)NCC1CCCO1 (stereo not drawn) | -4.56%
Cc1ccc(NC(=O)CC2Sc3ccc(C(F)(F)F)cc3NC2=O)c(Br)c1 (stereo not drawn) | 2.06%
N#Cc1ccc(NC(=O)c2ccccc2C(=O)O)cc1 | 1.08%
O=C(Nc1ccc(NC(=O)c2ccco2)cc1)c1ccco1 | -1.8%
N#Cc1c(NC(=O)C(F)(F)F)oc(-c2ccccc2)c1-c1ccccc1 | 4.55%
CCCc1cc(=O)n(CC)c(NC2CCCCC2)n1 | -0.575%
O=C(O)c1ccc2c(c1)C(=O)N(c1ccc([N+](=O)[O-])cc1)C2=O | -6.88%
CC(=O)NCCc1ccc(S(=O)(=O)N(C)C)cc1 | -1.33%
NC(=O)c1ccc(-n2nnnc2Oc2ccc(F)cc2)cc1 | 2.57%
CNS(=O)(=O)c1ccc(NC(=O)C23CC4CC(C2)CC(n2cnc(Br)n2)(C4)C3)cc1 | 2.09%
N#Cc1cnn2c(NC3CCCCCC3)c(-c3ccccc3F)[nH]c12 | 6.89%
COc1ccc(C2C=C(c3ccc(OC)c(OC)c3)Nc3ncnn32)cc1 (stereo not drawn) | -3.26%
COc1ccc(C2C(C(=O)c3ccc(C)o3)=C(O)C(=O)N2CC2CCCO2)cc1OC (stereo not drawn) | -9.12%
COCCNC(=O)c1cc(-c2ccccc2F)no1 | -1.19%
O=C(C1=C(O)/C(=C/c2ccccc2)CCC1)C(F)(F)F | -0.169%
